Source: the supplement of paper PMC8728848
The list shows a part of the results.

Legend:
Assay in all cases: glycan array binding signal (z-score within array); higher = stronger binding
Settings in all cases: glycan notation: IUPAC condensed, linker removed
[1] = target: Neu5Ac(a2-6)GlcNAc(b1-4)GlcNAc(b1-4)GlcNAc
Outline: (§1)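 Glycan array binding is given as a within-array Z-score, which can be read as non-binding when negative. The arrays, 3228 of them, came from the Consortium for Functional Glycomics database and were retained only where the protein sequence was available. Z-scores were averaged across arrays of the same protein sequence at different concentrations or buffers and across linkers.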

Neu5Ac(a2-8)Neu5Ac = target: Neu5Ac(a2-8)Neu5Ac
Outline: as §1

[2] = target: Neu5Ac(a2-8)Neu5Ac(a2-3)Gal(b1-3)GalNAc(b1-4)[Neu5Ac(a2-3)]Gal(b1-4)Glc
Outline: as §1

[3] = target: Neu5Ac(a2-8)Neu5Ac(a2-3)Gal(b1-3)GalNAc(b1-4)[Neu5Ac(a2-8)Neu5Ac(a2-3)]Gal(b1-4)Glc
Outline: as §1

[4] = target: Neu5Ac(a2-8)Neu5Ac(a2-3)Gal(b1-4)Glc
Outline: as §1

[5] = target: Neu5Ac(a2-8)Neu5Ac(a2-3)Gal(b1-4)GlcNAc
Outline: as §1

[6] = target: Neu5Ac(a2-8)Neu5Ac(a2-3)[Gal(b1-3)GalNAc(b1-4)]Gal(b1-4)Glc
Outline: as §1

[7] = target: Neu5Ac(a2-8)Neu5Ac(a2-3)[GalNAc(b1-4)]Gal(b1-4)Glc
Outline: as §1

[8] = target: Neu5Ac(a2-8)Neu5Ac(a2-8)Neu5Ac
Outline: as §1

[9] = target: Neu5Ac(a2-8)Neu5Ac(a2-8)Neu5Ac(a2-3)Gal(b1-4)Glc
Outline: as §1

[10] = target: Neu5Ac(a2-8)Neu5Ac(a2-8)Neu5Ac(a2-3)[Gal(b1-3)GalNAc(b1-4)]Gal(b1-4)Glc
Outline: as §1

[11] = target: Neu5Ac(a2-8)Neu5Ac(a2-8)Neu5Ac(a2-3)[GalNAc(b1-4)]Gal(b1-4)Glc
Outline: as §1

[12] = target: Neu5Ac(a2-8)Neu5Ac(a2-8)Neu5Ac(a2-8)Neu5Ac(a2-3)[GalNAc(b1-4)]Gal(b1-4)Glc
Outline: as §1

[13] = target: Neu5Ac(a2-8)Neu5Gc(a2-3)Gal(b1-4)GlcNAc
Outline: as §1

[14] = target: Neu5Ac(b2-6)Gal(b1-4)GlcNAc
Outline: as §1

Neu5Ac(b2-6)GalNAc = target: Neu5Ac(b2-6)GalNAc
Outline: as §1

[15] = target: Neu5Ac9Ac(a2-3)Gal(b1-3)GlcNAc
Outline: as §1

[16] = target: Neu5Ac9Ac(a2-3)Gal(b1-4)GlcNAc
Outline: as §1

[17] = target: Neu5Ac9Ac(a2-6)Gal(b1-4)GlcNAc
Outline: as §1

[18] = target: Neu5Gc(a2-3)Gal(b1-3)GlcNAc
Outline: as §1

[19] = target: Neu5Gc(a2-3)Gal(b1-3)[Fuc(a1-4)]GlcNAc
Outline: as §1

Neu5Gc(a2-3)Gal(b1-4)Glc = target: Neu5Gc(a2-3)Gal(b1-4)Glc
Outline: as §1

[20] = target: Neu5Gc(a2-3)Gal(b1-4)GlcNAc
Outline: as §1

[21] = target: Neu5Gc(a2-3)Gal(b1-4)GlcNAc(b1-3)Gal(b1-4)GlcNAc(b1-2)Man(a1-3)[Neu5Gc(a2-3)Gal(b1-4)GlcNAc(b1-3)Gal(b1-4)GlcNAc(b1-2)Man(a1-6)]Man(b1-4)GlcNAc(b1-4)GlcNAc
Outline: as §1

[22] = target: Neu5Gc(a2-3)Gal(b1-4)[Fuc(a1-3)]GlcNAc
Outline: as §1

[23] = target: Neu5Gc(a2-6)Gal(b1-4)GlcNAc
Outline: as §1

Neu5Gc(a2-6)GalNAc = target: Neu5Gc(a2-6)GalNAc
Outline: as §1

[24] = target: Neu5Gc(a2-8)Neu5Ac(a2-3)Gal(b1-4)GlcNAc
Outline: as §1

[25] = target: Neu5Gc(a2-8)Neu5Gc(a2-3)Gal(b1-4)GlcNAc
Outline: as §1

[26] = target: Neu5Gc(a2-8)Neu5Gc(a2-3)Gal(b1-4)GlcNAc(b1-3)Gal(b1-4)GlcNAc
Outline: as §1

[27] = target: Neu5Gc(a2-8)Neu5Gc(a2-6)Gal(b1-4)GlcNAc
Outline: as §1

[28] = target: Neu5Gc(b2-6)Gal(b1-4)GlcNAc
Outline: as §1

B1: Siglec-9 (Homo sapiens), Q9Y336 (protein)
chain: MLLLLLPLLWGRERAEGQTSKLLTMQSSVTVQEGLCVHVPCSFSYPSHGWIYPGPVVHGYWFREGANTDQDAPVATNNPARAVWEETRDRFHLLGDPHTKNCTLSIRDARRSDAGRYFFRMEKGSIKWNYKHHRLSVNVTALTHRPNILIPGTLESGCPQNLTCSVPWACEQGTPPMISWIGTSVSPLDPSTTRSSVLTLIPQPQDHGTSLTCQVTFPGASVTTNKTVHLNVSYPPQNLTMTVFQGDGTVSTVLGNGSSLSLPEGQSLRLVCAVDAVDSNPPARLSLSWRGLTLCPSQPSNPGVLELPWVHLRDAAEFTCRAQNPLGSQQVYLNVSLQSKATSGVTQGVVGGAGATALVFLSFCVIFVVVRSCRKKSARPAAGVGDTGIEDANAVRGSASQGPLTEPWAEDSPPDQPPPASARSSVGEGELQYASLSFQMVKPWDSRGQEATDTEYSEIKIHR
- glycan array binding signal (z-score) [1]: -0.29
- glycan array binding signal (z-score) (Neu5Ac(a2-8)Neu5Ac): 0.068
- glycan array binding signal (z-score) [2]: -0.141
- glycan array binding signal (z-score) [3]: 0.126
- glycan array binding signal (z-score) [4]: -0.136
- glycan array binding signal (z-score) [5]: -0.259
- glycan array binding signal (z-score) [6]: -0.214
- glycan array binding signal (z-score) [7]: -0.148
- glycan array binding signal (z-score) [8]: -0.139
- glycan array binding signal (z-score) [9]: 0.076
- glycan array binding signal (z-score) [10]: -0.293
- glycan array binding signal (z-score) [11]: 0.005
- glycan array binding signal (z-score) [12]: -0.237
- glycan array binding signal (z-score) [13]: -0.084
- glycan array binding signal (z-score) [14]: -0.086
- glycan array binding signal (z-score) (Neu5Ac(b2-6)GalNAc): -0.222
- glycan array binding signal (z-score) [15]: -0.133
- glycan array binding signal (z-score) [16]: 0.165
- glycan array binding signal (z-score) [17]: -0.042
- glycan array binding signal (z-score) [18]: -0.028
- glycan array binding signal (z-score) [19]: -0.012
- glycan array binding signal (z-score) (Neu5Gc(a2-3)Gal(b1-4)Glc): 0.235
- glycan array binding signal (z-score) [20]: 0.444
- glycan array binding signal (z-score) [21]: -0.051
- glycan array binding signal (z-score) [22]: 0.005
- glycan array binding signal (z-score) [23]: -0.128
- glycan array binding signal (z-score) (Neu5Gc(a2-6)GalNAc): -0.06
- glycan array binding signal (z-score) [24]: 0.005
- glycan array binding signal (z-score) [25]: -0.136
- glycan array binding signal (z-score) [26]: -0.178
- glycan array binding signal (z-score) [27]: -0.451
- glycan array binding signal (z-score) [28]: 0.086
